Where “and” joins values, the source holds several entries; their conditions need not be identical. Identical values can stand only once. The inconclusive results got no clear call from the source; some entries with a clear call stand among them for comparison. For some assays here: Potencies of inconclusive entries are doubtful fits and often do not repeat. The source holds several records for some structures; these can differ, active in one and inactive in another. Calls of active or inactive are those of the source. Unless noted, calls follow the shape of the dose curve; as a rule, active = well fitted curve in the direction sought with a large enough effect in the repeat runs; inconclusive = weak or mixed curves; inactive = no such curve, though single readings can be large; an effect the other way counts as inactive or inconclusive.
Tests used:
[1] = qHTS assay to identify small molecule antagonists of the androgen receptor (AR) signaling pathway - cell viability counter screen (AID 743033; also: nearly all actives have a fitted effect of over 45% in size; also: potency is read from the fitted curve at half-maximal effect); details: AR-bla HEK293 viability, CellTiter-Glo luminescence, 16 h; activity change, negative = cytotoxicity: at 58.5 µM (top of the series) unless noted
[2] = qHTS assay to identify small molecule antagonists of the thyroid receptor (TR) signaling pathway (AID 743065); also: nearly all actives have a fitted effect of over 55% in size; also: potency is read from the fitted curve at half-maximal effect; as to activity, negative = inhibition: % is scaled to controls: 0 for no effect and ±100 for the full control effect
Outline: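 GH3.TRE-Luc rat pituitary cells carrying two TR response elements driving luciferase were plated for 4 h, given compound plus 1 nM T3 (final), and incubated 23.5 h at 37 C. ONE-Glo luminescence measured reporter inhibition; CellTiter-Fluor fluorescence tracked cytotoxicity.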

[3] = biological target: Estrogen receptor (Homo sapiens) (UniProt P03372); test: qHTS assay to identify small molecule agonists of the estrogen receptor alpha (ER-alpha) signaling pathway using the BG1 cell line (AID 743079); details: BG1Luc4E2 cells, ERE-luciferase agonist, 22 h; activation: at 70.3 µM (top of the series) unless noted; also: nearly all actives have a fitted effect of over 20% in size; also: potency is read from the fitted curve at half-maximal effect
[4] = qHTS assay to identify small molecule antagonists of the estrogen receptor alpha (ER-alpha) signaling pathway using the BG1 cell line (AID 743080; calls by dose curve;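 also: BG1 cells stimulated with 17beta-estradiol alongside compound; nearly all actives have a fitted effect of over 25% in size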; also: potency is read from the fitted curve at half-maximal effect; as to activity change, negative = inhibition: % is scaled to controls: 0 for no effect and ±100 for the full control effect); details: BG1Luc4E2 ERE-luciferase antagonist mode, luminescence; activity change, negative = inhibition: at 70.3 µM (top of the series) unless noted
Outline: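 Luminescence from a 4×ERE-luciferase reporter in BG1-Luc-4E2 cells served as read-out. Cells, pre-cultured 5 days in stripped-serum phenol-red-free medium, were exposed to compound with 17beta-estradiol co-stimulation for 21.5 h at 37 C.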

Aromatase (Homo sapiens) = Aromatase (Homo sapiens) (UniProt P11511); test: qHTS assay to identify aromatase inhibitors (AID 743083); details: MCF-7 aro ERE, testosterone-driven ERE luciferase, 24 h; activity, negative = inhibition: at 70.3 µM (top of the series); also: nearly all actives have a fitted effect of over 55% in size; also: potency is read from the fitted curve at half-maximal effect
[5] = test system: thyroid hormone receptor (rat, GH3 cells); test: qHTS assay to identify small molecule agonists of the thyroid receptor (TR) signaling pathway (AID 743066; calls by dose curve; also: % is scaled to controls: 0 for no effect and ±100 for the full control effect); details: GH3.TRE-Luc cells, TR agonist luciferase, 24 h; activation: at 83.9 µM (top of the series) unless noted
[6] = qHTS assay to identify small molecule antagonists of the estrogen receptor alpha (ER-alpha) signaling pathway - cell viability counter screen (AID 743074; calls by dose curve; also: nearly all actives have a fitted effect of over 45% in size; also: potency is read from the fitted curve at half-maximal effect)
[7] = biological target: Estrogen receptor (Homo sapiens) (UniProt P03372); test: qHTS assay to identify small molecule agonists of the estrogen receptor alpha (ER-alpha) signaling pathway (AID 743075; calls by dose curve; also: potency is read from the fitted curve at half-maximal effect)
[8] = qHTS assay to identify small molecule antagonists of the estrogen receptor alpha (ER-alpha) signaling pathway using the BG1 cell line - cell viability counter screen (AID 743081); details: BG1Luc4E2 viability, CellTiter-Fluor, 22 h; activity change, negative = cytotoxicity: at 70.3 µM (top of the series);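 also: compound given together with 17beta-estradiol as the ER stimulus; nearly all actives have a fitted effect of over 45% in size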; also: potency is read from the fitted curve at half-maximal effect; as to activity change, negative = cytotoxicity: % is scaled to controls: 0 for no effect and ±100 for the full control effect
[9] = qHTS assay to identify aromatase inhibitors - cell viability counter screen (AID 743084); details: MCF-7 aro ERE viability, CellTiter-Fluor, 24 h; activity change, negative = cytotoxicity: at 70.3 µM (top of the series) unless noted;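 also: cells stimulated with testosterone during compound exposure; nearly all actives have a fitted effect of over 55% in size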; also: potency is read from the fitted curve at half-maximal effect
[10] = biological target: Peroxisome proliferator-activated receptor gamma (Homo sapiens) (UniProt P37231); test: qHTS assay to identify small molecule agonists of the peroxisome proliferator-activated receptor gamma (PPARg) signaling pathway (AID 743094; active = well fitted activation curve with a large enough effect in the signal ratio in the repeat runs, not every such curve was filed as active; inconclusive = weak or mixed curves, or effect the other way; inactive = no such curve, though single readings can be large or run the other way; the % refers to the signal ratio; also: potency is read from the fitted curve at half-maximal effect); details: HEK293H PPARg-UAS-bla, beta-lactamase FRET ratio, 17 h; activation: at 57 µM (top of the series) unless noted
Outline: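 Stably transfected HEK293H cells (GeneBLAzer PPARg UAS-bla) were incubated with test substances for 17 h at 37C after a 5 h pre-incubation; beta-lactamase activity was then detected by FRET substrate fluorescence.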

[11] = biological target: Aryl hydrocarbon receptor (Homo sapiens) (UniProt P35869); test: qHTS assay to identify small molecule that activate the aryl hydrocarbon receptor (AhR) signaling pathway (AID 743085); also: potency is read from the fitted curve at half-maximal effect; nearly all actives have a fitted effect of over 15% in size
Outline: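 HepG2 cells stably carrying a 20-DRE firefly luciferase reporter (HG2L7.5c1) treated with compound for 24 hr at 37C. Luciferase read by ONE-Glo luminescence, with CellTiter-Fluor viability read first.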

[12] = biological target: Estrogen receptor (Homo sapiens) (UniProt P03372); test: qHTS assay to identify small molecule antagonists of the estrogen receptor alpha (ER-alpha) signaling pathway (AID 743069; active = well fitted curve in the direction sought with a large enough effect in the signal ratio in the repeat runs, not every such curve was filed as active; inconclusive = weak or mixed curves, or effect the other way; inactive = no such curve, though single readings can be large or run the other way; the % refers to the signal ratio; also: potency is read from the fitted curve at half-maximal effect); details: HEK293 ER-alpha-UAS-bla, beta-lactamase ratio, antagonist mode; activity, negative = inhibition: at 69.4 µM (top of the series) unless noted
Outline: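 HEK293 cells stably carrying an ER-alpha-UAS-bla beta-lactamase reporter were pre-cultured overnight in 2% charcoal-stripped FBS medium. Test compounds in DMSO were added together with 17beta-estradiol for 18 hr at 37C. Read-out was fluorescence after 2 hr with LiveBLAzer B/G FRET substrate at room temperature.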

[13] = qHTS assay to identify small molecule that activate the aryl hydrocarbon receptor (AhR) signaling pathway - cell viability counter screen (AID 743086);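 also: HepG2 liver cells carrying the AhR DRE luciferase reporter; % is scaled to controls: 0 for no effect and ±100 for the full control effect; nearly all actives have a fitted effect of over 45% in size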
Outline: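 HepG2-AhR-luc (HG2L7.5c1) cells, 4000/well, were preincubated 5 h at 37C, exposed to compound in qHTS format for 24 hr at 37C, then given CellTiter-Fluor for 30 min; viability was read as fluorescence in the reporter wells.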

[14] = qHTS assay to identify small molecule antagonists of the thyroid receptor (TR) signaling pathway - cell viability counter screen (AID 743064); details: GH3.TRE-Luc viability, CellTiter-Fluor, 24 h; activity change, negative = cytotoxic: at 70.3 µM (top of the series) unless noted; also: potency is read from the fitted curve at half-maximal effect; nearly all actives have a fitted effect of over 50% in size
Outline: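 GH3.TRE-Luc rat pituitary cells dosed after 4 hr plating, co-stimulated with T3 at 1 nM final, incubated 23.5 h at 37 C. Viability measured in the same wells by CellTiter-Fluor fluorescence after 30 min further at 37 C.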

[15] = biological target: Androgen receptor (Homo sapiens) (UniProt P10275); test: qHTS assay to identify small molecule antagonists of the androgen receptor (AR) signaling pathway (AID 743035; active = well fitted inhibition curve with a large enough effect in the signal ratio in the repeat runs, not every such curve was filed as active; inconclusive = weak or mixed curves, or effect the other way; inactive = no such curve, though single readings can be large or run the other way; the % refers to the signal ratio; also: potency is read from the fitted curve at half-maximal effect); details: HEK293 AR-UAS-bla, R1881-stimulated, beta-lactamase FRET, 16 h
Outline: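 Cell line: GeneBLAzer AR-UAS-bla GripTite (HEK293). Stimulus: R1881 added after compound. Exposure: 16 h, 37C, 5% CO2. Readout: LiveBLAzer B/G FRET fluorescence after 2 h at room temperature.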

[16] = biological target: Androgen receptor (Homo sapiens) (UniProt P10275); test: qHTS assay to identify small molecule agonists of the androgen receptor (AR) signaling pathway (AID 743036; active = well fitted activation curve with a large enough effect in the signal ratio in the repeat runs, with a control signal flat, not every such curve was filed as active; inconclusive = weak or mixed curves, or effect the other way; inactive = no such curve, though single readings can be large or run the other way; the % refers to the signal ratio; also: potency is read from the fitted curve at half-maximal effect); details: HEK293 AR-UAS-bla GripTite, beta-lactamase FRET ratio, 16 h; activation: at 62.4 µM (top of the series) unless noted
Outline: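 AR-UAS-bla HEK293 cells, plated 4 h before dosing, were treated with compound for 16 h at 37C. beta-Lactamase reporter read after 2 h with LiveBLAzer B/G FRET substrate at room temperature.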

[17] = qHTS assay to identify small molecule antagonists of the androgen receptor (AR) signaling pathway using the MDA cell line - cell viability counter screen (AID 743041); details: MDA-kb2 viability, CellTiter-Fluor, 16 h, cells co-treated with R1881 androgen agonist; viability change, negative = cytotoxic: at 70.3 µM (top of the series) unless noted
Outline: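 MDA-kb2 AR-luc human breast carcinoma cells (MMTV-luciferase, AR/GR responsive) were treated with compounds plus R1881 agonist for 16 h at 37 °C. Viability was read as CellTiter-Fluor fluorescence in the same wells as the reporter assay.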

[18] = biological target: Androgen receptor (Homo sapiens) (UniProt P10275); test: qHTS assay to identify small molecule antagonists of the androgen receptor (AR) signaling pathway using the MDA cell line (AID 743042; also: nearly all actives have a fitted effect of over 55% in size; also: potency is read from the fitted curve at half-maximal effect)
Outline: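 MDA-kb2 cells (human breast carcinoma, stably carrying an MMTV-luciferase reporter responsive to AR and GR) were plated at 3,000 cells/well and preincubated 5 hr at 37C, then given compound plus R1881 agonist for 16 h. ONE-Glo luminescence was read.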

[19] = activity change, negative = inhibition: at 58.5 µM (top of the series) unless noted
Tags tell the direction and shape of the fitted curve or compound fluorescence and quenching.

Chain of UniProt P37231 (P37231 whole entry, looked up): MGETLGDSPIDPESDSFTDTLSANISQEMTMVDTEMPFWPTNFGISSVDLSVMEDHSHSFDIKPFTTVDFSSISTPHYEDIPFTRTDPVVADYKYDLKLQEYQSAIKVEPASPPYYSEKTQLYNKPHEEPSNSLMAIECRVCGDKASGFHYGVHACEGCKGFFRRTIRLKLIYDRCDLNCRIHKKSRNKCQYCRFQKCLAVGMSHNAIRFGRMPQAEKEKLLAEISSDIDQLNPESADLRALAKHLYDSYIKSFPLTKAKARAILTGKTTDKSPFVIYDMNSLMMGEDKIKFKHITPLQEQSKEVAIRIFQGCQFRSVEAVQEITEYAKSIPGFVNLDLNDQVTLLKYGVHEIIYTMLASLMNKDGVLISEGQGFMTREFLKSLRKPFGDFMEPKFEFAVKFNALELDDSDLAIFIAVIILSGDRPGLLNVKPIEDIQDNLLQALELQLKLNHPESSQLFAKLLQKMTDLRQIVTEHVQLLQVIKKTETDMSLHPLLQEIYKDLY
Chain of UniProt P10275 (P10275 whole entry, looked up): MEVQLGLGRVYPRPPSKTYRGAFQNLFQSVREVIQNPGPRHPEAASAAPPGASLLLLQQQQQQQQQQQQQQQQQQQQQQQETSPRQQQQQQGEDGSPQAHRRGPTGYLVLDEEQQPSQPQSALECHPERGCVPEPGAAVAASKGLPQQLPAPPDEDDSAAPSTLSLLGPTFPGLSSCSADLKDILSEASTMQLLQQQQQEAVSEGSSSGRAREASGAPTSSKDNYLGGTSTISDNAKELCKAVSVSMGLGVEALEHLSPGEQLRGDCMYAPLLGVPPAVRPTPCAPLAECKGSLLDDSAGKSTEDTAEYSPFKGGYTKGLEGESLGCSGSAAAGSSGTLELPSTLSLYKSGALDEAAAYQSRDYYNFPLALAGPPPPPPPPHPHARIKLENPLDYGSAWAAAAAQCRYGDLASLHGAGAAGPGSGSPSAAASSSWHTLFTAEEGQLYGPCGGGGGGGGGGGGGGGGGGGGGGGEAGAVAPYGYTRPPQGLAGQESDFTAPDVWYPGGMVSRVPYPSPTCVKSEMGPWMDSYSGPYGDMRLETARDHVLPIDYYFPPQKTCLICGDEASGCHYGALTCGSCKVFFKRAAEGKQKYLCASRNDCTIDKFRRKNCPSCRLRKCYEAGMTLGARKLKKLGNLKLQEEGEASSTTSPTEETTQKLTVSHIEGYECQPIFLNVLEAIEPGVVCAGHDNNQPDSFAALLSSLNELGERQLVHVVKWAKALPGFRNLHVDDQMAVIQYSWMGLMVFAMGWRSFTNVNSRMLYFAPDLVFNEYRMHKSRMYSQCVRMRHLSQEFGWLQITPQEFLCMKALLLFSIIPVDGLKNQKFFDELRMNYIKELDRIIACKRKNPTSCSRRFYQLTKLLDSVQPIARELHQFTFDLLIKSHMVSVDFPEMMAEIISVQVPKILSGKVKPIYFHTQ
Chain of UniProt P03372 (P03372 whole entry, looked up): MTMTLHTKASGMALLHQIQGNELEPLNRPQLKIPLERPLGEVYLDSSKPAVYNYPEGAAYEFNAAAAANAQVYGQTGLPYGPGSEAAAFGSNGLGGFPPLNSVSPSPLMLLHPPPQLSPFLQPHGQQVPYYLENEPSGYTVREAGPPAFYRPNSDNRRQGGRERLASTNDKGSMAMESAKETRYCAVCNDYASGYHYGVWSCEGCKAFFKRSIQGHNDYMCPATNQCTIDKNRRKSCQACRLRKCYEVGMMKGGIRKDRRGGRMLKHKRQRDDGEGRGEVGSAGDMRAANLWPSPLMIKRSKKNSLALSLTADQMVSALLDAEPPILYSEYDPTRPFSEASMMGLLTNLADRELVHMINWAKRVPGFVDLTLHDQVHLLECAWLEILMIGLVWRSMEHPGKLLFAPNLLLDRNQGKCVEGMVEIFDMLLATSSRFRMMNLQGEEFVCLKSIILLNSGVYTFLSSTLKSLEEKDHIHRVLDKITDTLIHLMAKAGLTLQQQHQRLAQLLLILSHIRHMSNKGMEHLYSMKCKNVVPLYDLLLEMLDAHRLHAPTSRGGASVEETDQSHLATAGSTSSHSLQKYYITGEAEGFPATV
Chain of UniProt P11511 (P11511 whole entry, looked up): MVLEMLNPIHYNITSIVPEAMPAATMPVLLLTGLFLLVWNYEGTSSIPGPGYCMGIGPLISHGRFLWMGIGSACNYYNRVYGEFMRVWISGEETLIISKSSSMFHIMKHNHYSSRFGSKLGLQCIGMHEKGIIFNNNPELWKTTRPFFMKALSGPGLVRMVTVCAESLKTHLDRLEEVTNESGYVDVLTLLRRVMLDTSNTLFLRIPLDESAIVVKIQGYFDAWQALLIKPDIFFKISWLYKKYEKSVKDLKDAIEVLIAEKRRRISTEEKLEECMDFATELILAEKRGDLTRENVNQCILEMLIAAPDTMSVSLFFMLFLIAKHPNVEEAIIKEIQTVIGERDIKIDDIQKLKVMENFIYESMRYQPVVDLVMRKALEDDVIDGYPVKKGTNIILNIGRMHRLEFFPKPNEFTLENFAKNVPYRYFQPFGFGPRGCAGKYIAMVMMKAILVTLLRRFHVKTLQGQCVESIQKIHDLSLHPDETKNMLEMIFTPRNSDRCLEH
Chain of UniProt P35869 (P35869 whole entry, looked up): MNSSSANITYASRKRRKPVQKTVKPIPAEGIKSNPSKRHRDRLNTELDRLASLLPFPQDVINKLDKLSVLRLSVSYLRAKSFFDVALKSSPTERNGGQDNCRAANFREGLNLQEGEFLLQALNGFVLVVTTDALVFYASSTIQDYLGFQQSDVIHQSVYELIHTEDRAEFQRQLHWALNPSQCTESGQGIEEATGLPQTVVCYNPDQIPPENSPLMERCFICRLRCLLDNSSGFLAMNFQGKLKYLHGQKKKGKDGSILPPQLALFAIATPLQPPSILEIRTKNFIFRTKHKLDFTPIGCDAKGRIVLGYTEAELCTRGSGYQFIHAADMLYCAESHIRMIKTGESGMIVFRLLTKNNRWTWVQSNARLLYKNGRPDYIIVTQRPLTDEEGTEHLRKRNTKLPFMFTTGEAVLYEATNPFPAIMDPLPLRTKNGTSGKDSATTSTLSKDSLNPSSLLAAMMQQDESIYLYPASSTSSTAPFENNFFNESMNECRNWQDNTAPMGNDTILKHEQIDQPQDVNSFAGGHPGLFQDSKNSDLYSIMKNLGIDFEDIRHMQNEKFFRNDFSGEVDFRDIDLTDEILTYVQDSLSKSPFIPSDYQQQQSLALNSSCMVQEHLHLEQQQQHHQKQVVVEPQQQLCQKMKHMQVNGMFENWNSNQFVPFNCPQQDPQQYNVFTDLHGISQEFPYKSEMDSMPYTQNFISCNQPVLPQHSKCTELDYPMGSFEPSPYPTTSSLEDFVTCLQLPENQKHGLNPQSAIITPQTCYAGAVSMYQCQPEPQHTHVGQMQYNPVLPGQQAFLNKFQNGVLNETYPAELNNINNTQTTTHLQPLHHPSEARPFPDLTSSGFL

In the case of `CC(=O)OC(c1ccccc1)C(Cl)(Cl)Cl` (stereo unspecified), the Potency [1] is reported as inconclusive: 54.9 µM [cytotoxic, partial curve, poor fit], the Potency [2] is reported as “inactive” and the Potency [3] is reported as inconclusive: 61.1 µM [inhibitor, single point]. For the same compound, the Potency [4] was active: 68.6 µM and the Potency (Aromatase (Homo sapiens)) was inconclusive: 30.6 µM [inhibitor, partial curve, poor fit].
In the case of `CCCCCCCCCCCC[N+](C)(C)CCOc1ccccc1`, the Potency [1] is reported as active: 23.9 µM and active: 15.5 µM, the activation [5] is reported as inconclusive: -8.51% [phenotype inactive] and the Potency [6] is reported as active: 19 µM and active: 17.4 µM. For the same compound, the Potency [7] was inconclusive: 38.9 µM [cytotoxic, partial curve], the Potency [3] was inconclusive: 29.8 µM [inhibitor] and inconclusive: 54.5 µM [inhibitor, partial curve] and the Potency [4] was inconclusive: 61.1 µM [falling, partial curve]. The Potency [8] was inconclusive: 68.6 µM [cytotoxic, single point], the Potency [9] was active: 26.6 µM and active: 27.3 µM and the Potency [10] was inconclusive: 8.49 µM [inhibitor, partial curve, poor fit] and inconclusive: 61.7 µM [cytotoxic].
With `O=C1C(=O)c2cccc3cccc1c23` the Potency [1] was inconclusive: 19.5 µM [cytotoxic, partial curve, poor fit], the Potency [2] was inconclusive: 19.3 µM [inhibitor, single point] and the Potency [6] was inconclusive: 54.9 µM [cytotoxic, single point]. For the same compound, the Potency [4] was “inactive”, the activity change, negative = cytotoxicity [8] was inconclusive: -30.1% [cytotoxic] and the Potency [9] was “inactive”. The Potency [11] was inconclusive: 27.3 µM [activator, partial curve].
In the case of `CCCCc1ccccc1`, the Potency [1] is reported as “inactive”, the Potency [12] is reported as “inactive” and the Potency [6] is reported as “inactive”.
For `C1CN2CCN1CC2`, the Potency [1] was “inactive”, the Potency [5] was “inactive” and the Potency [12] was “inactive and inconclusive: 4.36 µM [fluorescent, full curve]”. The Potency [6] was active: 4.36 µM and the Potency [13] was “inactive”.
In the case of `O=[N+]([O-])O.O=[N+]([O-])O.[Cd]`, the Potency [1] is reported as inconclusive: 43.6 µM [cytotoxic, partial curve, poor fit], the Potency [14] is reported as inconclusive: 68.6 µM [cytotoxic, single point] and the Potency [8] is reported as inconclusive: 0.0344 µM [rising, full curve, poor fit]. The Potency [9] was inconclusive: 68.6 µM [cytotoxic, single point].
For `CN1C(=O)C(O)N=C(c2ccccc2)c2cc(Cl)ccc21` (stereo unspecified), the Potency [1] was “inactive”, the Potency [12] was inconclusive: 56.9 µM [rising, single point] and the Potency [3] was inconclusive: 29.8 µM [inhibitor, partial curve] and inconclusive: 31.7 µM [inhibitor, partial curve]. For the same compound, the Potency [4] was inconclusive: 63.3 µM and the activity change, negative = inhibition [4] was inconclusive: -21.5%.
For `CCCCC(CC)COC(=O)c1ccc(C(=O)OCC(CC)CCCC)c(C(=O)OCC(CC)CCCC)c1` (stereo unspecified), the Potency [15, 19] was inconclusive: 4.9 µM [falling, full curve], the activity change, negative = inhibition [15, 19] was inconclusive: -29.8% and the Potency [14] was inconclusive: 68.6 µM [rising, single point]. For the same compound, the Potency [6] was inconclusive: 21.9 µM [cytotoxic, partial curve, poor fit].
With `N#CCC#N` the Potency [15, 19] was inconclusive: 54.9 µM, the Potency [16] was inconclusive: 54.9 µM [activator, single point] and the Potency [12] was “inactive”.
With `N#CC(Br)Br` the Potency [1] was “inactive”, the Potency [6] was “inactive” and the Potency [8] was “inactive”. For the same compound, the activation [10] was inconclusive: 3.69%.
With `COC(C)(C)CCC[C@H](C)C/C=C/C(C)=C/C(=O)OC(C)C` the Potency [15, 19] was inconclusive: 54.9 µM [falling, single point], the Potency [16] was “inactive” and the viability change, negative = cytotoxic [17] was inconclusive: -1.15%. The Potency [18] was inconclusive: 61.1 µM [inhibitor, partial curve] and the Potency [14] was inconclusive: 68.6 µM [cytotoxic, single point].
For `CN(C)P(=O)(N(C)C)N(C)C`, the Potency [1] was “inactive” and the Potency [9] was inconclusive: 27.3 µM [rising, partial curve, poor fit].
With `ClC(Cl)=C(Cl)C(Cl)=C(Cl)Cl` the Potency [1] was “inactive” and the Potency [13] was “inactive”.
With `COP(=S)(Oc1cc(Cl)c(Br)cc1Cl)c1ccccc1` (stereo unspecified) the Potency [15, 19] was inconclusive: 38.9 µM [rising, partial curve, poor fit], the Potency [16] was inconclusive: 13.8 µM [rising, partial curve, poor fit] and the Potency [18] was “inactive”. For the same compound, the Potency [14] was inconclusive: 68.6 µM [cytotoxic], the Potency [5] was “inactive” and the activity, negative = inhibition (Aromatase (Homo sapiens)) was inconclusive: -36.4% [inhibitor]. The activation [10] was inconclusive: -14.8%.
In the case of `COP(=O)(OC)OC`, the activity change, negative = inhibition [15, 19] is reported as inconclusive: 10.5%, the activity change, negative = inhibition ([15]; at 78.9 µM (top of the series)) is reported as inactive: 9.85% and the Potency [14] is reported as inconclusive: 3.89 µM [rising, full curve, poor fit]. For the same compound, the Potency [5] was “inactive”, the Potency [6] was inconclusive: 12.4 µM [cytotoxic, full curve] and inconclusive: 21.9 µM [cytotoxic, single point] and the Potency [3] was “inactive”.

From PubChem BioAssay (Tox21)
